# Laboratory results as given in PubChem BioAssay AID1508624 (National Center for Advancing Translational Sciences (NCATS), 2021).
# The whole screen tested about 48,000 compounds, of which about 120 (0.25%) were called active. Another 4% or so got no clear call; they are omitted. The call rests on the fitted dose curve; in most records, active means well fitted activation curve with a large enough effect; inconclusive means small, poorly fitted or top-dose-only effect, or another doubt; inactive means no such curve, though single readings can be large or run the other way. Some of the results follow.
# Experiment: Primary qHTS for Identification of Small Molecule Activators of Huntingtin-Antisense Promoter Activity; further: nearly all actives have a fitted effect of over 55% in size
# Settings: HEK293 HTT-AS promoter firefly luciferase reporter, 24 h; series mostly up to 57.5 µM; activity change, positive = activation: at the top concentration
# In short: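 HEK293 luciferase promoter-reporter cells (2,500/well) plated 24 h, then compounds added at up to 57.5 uM final for 24 h at 37 °C. Firefly luminescence by Dual-Glo, normalized to vehicle (0%) and zero RLU (-100%).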
row,Structure (SMILES),"activity change, positive = activation"
1,CC1CN(C(=O)N2CCC(C(=O)NCCCc3ccccc3)CC2)c2ccccc2O1 (configuration not stated),inactive: -17.5%
2,CCOc1ccc(Nc2oc(/C=C/c3cccc(OC)c3)nc2C#N)cc1,inactive: 1.47%
3,CCCCCn1c(CCNC(=O)c2cccc(C)c2)nc2ccccc21,inactive: -24%
4,NS(=O)(=O)c1ccc(NC(=O)CSc2ccc3ccccc3n2)cc1,inactive: -7.26%
5,Cc1ccc(S(=O)(=O)c2cn(CC(=O)Nc3cccc(C)c3)c3cc4c(cc3c2=O)OCO4)cc1,inactive: -1.56%
6,CC1CCC(C(=O)NC(C(=O)OCC(=O)c2ccc(Br)cc2)C(C)C)CC1 (configuration not stated),inactive: -20.6%
7,Cc1ccc(CNS(=O)(=O)c2cc3c(cc2Cl)NC(=O)CO3)o1,inactive: -3.67%
8,Cc1ccc(/C=C/c2onc(C)c2S(=O)(=O)N2CCC(C(=O)Nc3ccc(Br)c(C)c3)CC2)cc1,inactive: -18%
9,CCC(CC)C(=O)Nc1cc(-c2ccccc2F)nn1-c1ccccc1,inactive: -8.94%
10,CNS(=O)(=O)c1cn(CC(=O)Nc2ccc(OC)cc2OC)cc1S(=O)(=O)NC,inactive: -2.35%
11,Cc1ccccc1/C=C(\C#N)c1nc(-c2ccc(Cl)cc2)cs1,inactive: 27.7%
12,Cc1csc2nc(-c3ccc(NS(=O)(=O)c4cc(F)ccc4F)cc3)cn12,inactive: -33.5%
13,Cc1ccc(CNC(=O)c2nnc(Cc3ccc(Cl)cc3)o2)cc1,inactive: -7.02%
14,CN(C(=O)c1ccc2c(Cl)c3c(nc2c1)CCC3)c1ccccc1F,inactive: 27.8%
15,COc1ccccc1C(=O)Nc1ccc(C(=O)OCc2cc(=O)n3nc(C)sc3n2)cc1,inactive: -50.6%
16,CCN(CC)C(=O)Cn1c(=O)n(-c2ccccc2)c(=O)c2c3c(sc21)CCC3,inactive: -2.46%
17,COc1ccc(-c2c(C)c3ccc(O)c(CN4CCCC4)c3oc2=O)cc1OC,inactive: -5.96%
18,CN1CCC(=C2c3ccccc3Sc3ccccc32)CC1,inactive: -18.6%
19,COc1ccc(OCc2nc(-c3ccc(-n4cccc4)cc3)no2)cc1,inactive: -6.75%
20,Cc1cc(C)n(-c2nc(C)c(C)c(=O)n2CC(=O)Nc2ccc(OC(F)(F)F)cc2)n1,inactive: -28.5%
21,Cc1cccc(NC(=O)c2cc(S(=O)(=O)N3CCCCCC3)cn2C)c1C,inactive: -19.8%

row,Structure (SMILES),"activity change, positive = activation"
1,Cc1ccc(NC(=O)Cn2cc(C(=O)C3CC3)c3ccccc32)cc1C,inactive: -5.22%
2,CCc1ccc(CNC(=O)C2CCCN(S(=O)(=O)c3ccc4c(ccn4C)c3)C2)cc1 (configuration not stated),inactive: -29.2%
3,COc1ccc(CNC(=O)CCc2nc(-c3ccc(OC)cc3)no2)cc1,inactive: 17.6%
4,Cc1cc(C)c2c(n1)sc1c(=O)n(-c3ccccc3C(F)(F)F)nnc12,inactive: -8.27%
5,CCSc1nc2c([nH]c3ccccc32)c(=O)n1-c1ccc(F)cc1,inactive: -28.7%
6,CCCCOc1ccc(CNC(=O)c2ccc3c(c2)N(C)C(=O)C2CCCCN32)cc1 (configuration not stated),inactive: -20.4%
7,Cc1ccc(OCCSc2nc3ccc(NC(=O)c4ccc(F)cc4)cc3s2)cc1,inactive: -3.44%
8,CCOC(=O)C(CC)Sc1c(CC)cnc2c1c(=O)n(C)c(=O)n2C (configuration not stated),inactive: -12.5%
9,Cc1cccc(C(C)C)c1NC(=O)C(NS(=O)(=O)c1cccc2nsnc12)c1ccccc1 (configuration not stated),inactive: -8.73%
10,Nc1c2ccccc2nc2ccccc12,inactive: -35.8%
11,O=C(NCc1ccccc1)c1cccn1-c1nnc(N2CCCC2)s1,inactive: 2.01%
12,CC(=O)N1c2ccccc2C(C)(c2ccc(C)cc2)CC1(C)C (configuration not stated),inactive: -12.7%
13,O=C(O)C=Cc1ccc(O)c(O)c1,inactive: -9.07%
14,CN1C(=O)c2ccccc2Sc2ccc(NC(=O)N3CCN(c4ccccc4)CC3)cc21,inactive: -61.8%
15,COc1ccc(-n2nnnc2C2CCN(S(=O)(=O)c3ccc(C)cc3)CC2)cc1,inactive: -36.8%
16,COc1cc2c(cc1OC)C(COc1ccc3c(C)cc(=O)oc3c1)N(C(=O)c1ccccc1C)CC2 (configuration not stated),inactive: -1.68%
17,COCCn1c(=O)[nH]c2cc(C(=O)N3CCN(c4ccccc4)CC3)ccc2c1=O,inactive: -14.8%
18,CC(=O)N1CCc2cc(S(=O)(=O)NC(Cc3ccccc3)C(=O)Nc3cc(C)ccc3C)ccc21 (configuration not stated),inactive: -0.76%
19,CCOc1ccc(CNC(=O)c2nn(-c3ccc(OC)cc3)c(=O)c3c2c2ccccc2n3C)cc1,inactive: 3.22%
20,NC(=O)CSc1ncc2c(n1)-c1ccccc1N(Cc1ccc(F)cc1)S2(=O)=O,inactive: 20.4%
21,CCOc1ccc(C(=O)Nc2ccc3nc(SCC(=O)N4CCc5ccccc54)sc3c2)cc1,inactive: -17.6%

row,Structure (SMILES),"activity change, positive = activation"
1,CC1=C(c2ccc(C)cc2)S(=O)(=O)N(Cc2ccc(C(=O)Nc3ccc(C)c(F)c3)cc2)C1=O,inactive: -31.7%
2,Cc1ccc(-c2ccc(CCC(=O)O)n2-c2ccc(C(N)=O)cc2)cc1,inactive: -4.14%
3,Cc1ccc(CNC(=O)c2ccc(Cn3c(=O)c4ccccc4n(CC(=O)Nc4c(C)cc(C)cc4C)c3=O)cc2)cc1,inactive: -21.6%
4,O=C(NCC(c1cccs1)S(=O)(=O)c1cccs1)c1cccc(F)c1 (configuration not stated),inactive: -23.9%
5,c1cnc(N2CCN(c3ncc4c(n3)CCNC4)CC2)nc1,inactive: 5.84%
6,COc1ccc(OC)c(-n2nnc(-c3nc(-c4cc(OC)c(OC)c(OC)c4)no3)c2C)c1,inactive: -9.93%
7,COc1ccc(-c2nc3ccccc3n3c(-c4ccccc4)c4c(=O)n(C)c(=O)n(C)c4c23)cc1OC,"inactive: -2.39% [at 11.5 µM, percent change from vehicle, -100% = no light]"
8,O=c1oc2c3c(ccc2c2ccccc12)OCN(Cc1ccc(Cl)cc1)C3,inactive: -12.8%
9,Cc1ccc(=O)n(-c2ccccc2)c1,inactive: -3.65%
10,Cc1cc2c(cc1NS(=O)(=O)c1cccc(C#N)c1)n(C)c(=O)c(=O)n2C,inactive: -10.3%
11,CCc1cccc(C)c1NC(=O)Cn1nnc(-c2nc(-c3ccccc3F)no2)c1N,inactive: -4.73%
12,Cn1cc(S(=O)(=O)N2CCCCCC2)cc1C(=O)Nc1ccc(Cl)c(C(F)(F)F)c1,inactive: -11.2%
13,COc1ccc(NS(=O)(=O)c2cc3c(cc2C)N(C(C)=O)CCO3)cc1,inactive: -21.6%
14,CC1=Nc2cc(C(=O)N3CCC(C)CC3)ccc2Sc2ccc(Cl)cc21,inactive: -30.1%
15,O=C1c2ccccc2CCc2ccccc21,inactive: 12.9%
16,CCc1ccc(NC(=O)C2CCCN2S(=O)(=O)c2ccc3c(c2)CCCC(=O)N3)cc1 (configuration not stated),inactive: -19.3%
17,COc1ccc(CCNC(=O)c2ccc(Cn3c(=O)c4ccccc4n(Cc4cccc(F)c4)c3=O)cc2)cc1OC,inactive: -34%
18,COc1ccc(-c2n[nH]c3c2cnc2ccc(F)cc23)cc1,inactive: 26.1%
19,CCCSc1nc(-c2ccccc2)[nH]c1S(=O)(=O)c1ccc(C)cc1,inactive: -25.5%
20,Cc1ccc(-c2c(C(=O)NCCc3ccccc3)oc(=O)c3ccccc23)cc1,inactive: -33.9%
